The results in this text go back to patent US20240082414A1 (Eli Lilly, published 2024).

Test [1] addresses T1, human FcγRIIb (CD32b) extracellular domain (human, UniProt P31994 43-217).
T1 construct: extracellular domain
T1 sequence (looked up): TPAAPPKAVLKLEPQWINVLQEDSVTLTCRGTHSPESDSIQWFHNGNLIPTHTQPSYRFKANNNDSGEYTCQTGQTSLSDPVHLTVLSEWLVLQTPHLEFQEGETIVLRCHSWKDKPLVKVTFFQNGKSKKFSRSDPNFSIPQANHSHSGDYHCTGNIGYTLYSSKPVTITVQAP
Put plainly: SPR (Biacore), antibody captured on Protein A, FcγR ECD as analyte, steady state, 25° C. The method, then:
(§1) Injections of 2×10 μL of glycine, pH 1.5, was used to remove any noncovalently associated protein. […] FC1 was the reference FC, therefore no antibody was captured in FC1. […] Duplicate injections of each concentration were injected over all FCs at 40 μL/minute for 120 seconds followed by a 1200 second dissociation phase. Regeneration was performed by injecting 15 μL of 10 mM glycine, pH 1.5, at 30 μL/minute over all FCs. Reference-subtracted data was collected as FC2 FC1, FC3-FC1, and FC4-FC1 and the measurements were obtained at 25° C. The affinity (KD) was calculated using either steady state equilibrium analysis with the Scrubber 2 Biacore Evaluation Software or a “1:1 (Langmuir) binding” model in BIA Evaluation. […] FC1 was the reference FC. […] Duplicate injections of each concentration were injected over all FCs at 40 μL/minute for 60 seconds followed by a 120 second dissociation phase. Regeneration was performed by injecting 15 μL of 10 mM glycine, pH 1.5, at 30 μL/minute over all FCs. Reference-subtracted data was collected as FC2-FC1, FC3-FC1, and FC4-FC1, and the measurements were obtained at 25° C. The affinity (KD) was calculated using the steady state equilibrium analysis with the Scrubber 2 Biacore Evaluation Software. Each receptor was assayed at least two times.

For test [2], the target named is T2, human TNFα (recombinant, soluble) (human, UniProt P01375 part only). Put plainly: cell-based or functional assay.
Test [3] addresses T2, human TNFα (recombinant, soluble). Description: antigen-down ELISA, plate coated with human TNFα. The method, then: Example 2a. […] Briefly, 384-well high binding plates (Greiner Bio-one #781061) were coated with 20 μL per well of 1 μg/mL of human TNFα (Syngene), 2 μg/mL of rhesus macaque TNFα (R&D Systems, Cat# 1070-RM), or 2 μg/mL of canine TNFα (R&D Systems, Cat# 1507-CT/CF) diluted in carbonate buffer pH 9.3 (0.015 M Na₂CO₃ and 0.035 M NaHCO₃) and stored at 4° C. overnight. […] The plates were incubated at 37° C. for 90 min, then washed three times in PBS/0.1% Tween. 20 μL of secondary antibody reagent goat-anti-human-kappa-AP (Southern Biotech, Cat# 2060-04) with 1:1500 dilution was added to the plate and incubated for 45 minutes at 37° C. Plates were washed 3 times as above, and 20 μL of alkaline phosphatase substrate solution diluted to 1:35 in molecular grade water was added to every well. Once the color developed (approximately 15-30 min), plates were read at 560 nm OD on a Molecular Device Spectramax plate reader and data was acquired using Softmax Pro 4.7 software. Data analysis was performed in GraphPad Prism.

Test [4] has as its target T3, human FcγRI (CD64) extracellular domain (human, UniProt P12314 16-292).
T3 construct: extracellular domain; also called FcγRI ECD
Description: SPR (Biacore), antibody captured on Protein A, FcγR ECD as analyte, 25° C. The procedure:
as §1

T2 sequence (P01375 77-233 limits assumed): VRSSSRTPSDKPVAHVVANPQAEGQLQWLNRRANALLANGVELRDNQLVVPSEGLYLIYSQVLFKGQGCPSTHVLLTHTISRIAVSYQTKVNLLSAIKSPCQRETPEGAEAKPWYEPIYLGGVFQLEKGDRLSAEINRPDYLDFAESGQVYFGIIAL
T3 sequence (P12314 16-292): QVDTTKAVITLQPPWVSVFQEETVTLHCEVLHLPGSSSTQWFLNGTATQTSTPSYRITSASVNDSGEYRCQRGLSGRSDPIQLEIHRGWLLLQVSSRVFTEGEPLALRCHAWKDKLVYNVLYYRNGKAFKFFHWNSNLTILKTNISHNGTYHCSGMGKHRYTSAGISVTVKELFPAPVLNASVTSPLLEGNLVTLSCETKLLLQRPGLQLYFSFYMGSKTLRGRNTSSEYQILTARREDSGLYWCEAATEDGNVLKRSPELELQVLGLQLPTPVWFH

B1: anti-human TNFα Ab1 GC conjugate of Example 1b (n is 4) (antibody, human IgG1, kappa)
heavy: QVQLVQSGAEVKKPGASVKVSCKASGYTFTGYYIHWVRQAPGQGLEWMGWINPYTGGTNYAQKFQGRVTMTRDTSISTAYMELSRLRSDDTAVYYCARDLYGSSNYGGDVWGQGTTVTVSSASTKGPCVFPLAPSSKSTSGGTAALGCLVKDYFPEPVTVSWNSGALTSGVHTFPAVLQSSGLYSLSSVVTVPSSSLGTQTYICNVNHKPSNTKVDKRV[left out - human IgG1 Fc with A378C (EU numbers)]
light: DIQMTQSPSSLSASVGDRVTITCQASQGISNYLNWYQQKPGKAPKLLIYDASNLETGVPSRFSGSGSGTDFTFTISSLQPEDIATYYCQQYDKLPLTFGGGTKVEIKRTVAAPSVFIFPPSDEQLKSGTASVVCLLNNFYPREAKVQWKVDNALQSGNSQESVTEQDSKDSTYSLSSTLTLSKADYEKHKVYACEVTHQGLSSPVTKSFNRGEC
modifications: glucocorticoid receptor agonist payload-linker GC-L (Preparation 8) conjugated to the engineered cysteines at the 124 and 378 position of the heavy chain (EU numbering); average DAR 4.00-4.23
notes: Antibody-drug conjugate of Ab1 with the glucocorticoid payload-linker
For the molecule B1, the Kd was 1300 nM in test [1] and 0.0486 nM in test [4]. Moreover, in test [2], the “Inhibition of soluble human TNFα induced apoptosis IC50 (L929 cells)” value came to 0.104 µg/mL. For the same molecule, in test [3], the EC50 came out at 0.325 µg/mL.
